Laboratory results reported in the RNAGym collection of RNA variant scans (doi:10.1093/nar/gkz1192).
The source gives no read counts; variants with many changes may rest on few reads.

B1: CPEB3 Ribozyme (parent)
chain: UAACAGGGGGCCACAGCAGAAGCGUUCACGUCGCAGCCCCUGUCAGAUUCUGGUGAAUCUGCGAAUUCUGCUGUAUAUCUC

Variants of: B1
Test: self-cleavage, relative activity (ratio to wild type); higher = more cleavage; in vitro, sequencing
Method in brief: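 Libraries of CPEB3 self-cleaving ribozyme mutants came from rounds of error-prone PCR and carried barcodes, which DNA sequencing matched to variants. In vitro transcription used T7 RNA polymerase at 37°C for 5 hours, with a further 15 min in DNase I before EDTA stopped the reaction; the ribozymes cleaved during both steps. The RNA was reverse transcribed with template switching and sequenced on Illumina. Relative activity is the cleaved/total read fraction of a variant divided by that of the unmutated ribozyme, averaged over three batches with at least 5 reads.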

Variant	self-cleavage
G8U A13G U72A U76C	0.06
G8U A13U A15U U26C U72C	0.06
G8U A13U A18U C29U U60A U76A	0.05
G8U A13U A20G A35G A47G U49A U51A	0.03
G8U A13U A20G C32U A45G U67C U78C	0.05
G8U A13U A20G U41A A77U	0.05
G8U A13U A21G U26A A35U U41A A77U	0.03
G8U A13U A35G	0.24
G8U A13U A35U A47U	0.07
G8U A13U C40U A47G U54A A64G	0.02
G8U A13U G52A A56G G70U U72C	0.05
G8U A13U U25C U69C	0.07
G8U A15C U26C A57G	0.06
G8U A15C U67C	0.11
G8U A15G A21G G33A U60A	0.06
G8U A15G A35U U49C U60C C62A	0.04
G8U A15G A45U U67C A75G	0.1
G8U A15G C23G U31A A45U U51C	0
G8U A15G C32G A45G A57U	0.05
G8U A15G G30A	0.2
G8U A15G U25C U31A U54C	0.05
G8U A15G U41C U60C U80A	0.06
G8U A15G U72G C81U	0.26
G8U A15U A21U U80C	0.17

Variant	self-cleavage
G8U A15U U26C U49A	0.13
G8U A15U U31C A47U U54C U58C	0.04
G8U A15U U43C A56U	0.08
G8U A18G A20U U25C U80C	0.05
G8U A18G A45G U60A	0.05
G8U A18G U25A A47G U54A A64U	0.04
G8U A18G U25C A45G	0.37
G8U A18G U25C A56G U69A U80G	0.03
G8U A18G U31C U66G A77U	0.37
G8U A18G U43C A45G	0.05
G8U A18U A20G	0.06
G8U A18U A35G A57G G61C	0.07
G8U A20G A21G U41A G46C A64G	0.05
G8U A20G A28G	0.38
G8U A20G C40A A47G U48C U49A U69C	0.09
G8U A20G U31C A35U A64U A75G	0.08
G8U A20G U69C U80A	0.04
G8U A20U A28C G33C C34U U43C	0.04
G8U A20U A28G A64G U78C	0.05
G8U A20U A35C	0.08
G8U A20U A35U U43A	0.1
G8U A20U A47G U49C	0.05
G8U A20U G24A A35U C50A	0.1
G8U A21G A45G	0.09

Variant	self-cleavage
G8U A21G C23A A28G U69A	0.11
G8U A21G U31C U60C	0.06
G8U A21G U31C U60C U72C	0.05
G8U A21G U41A U80C	0.44
G8U A21G U48C U67C	0.04
G8U A21G U72C	0.08
G8U A21U A28G A56G U72A	0.09
G8U A21U U25C A64G U66G	0.05
G8U A28G C32U G55A U67C	0.05
G8U A28G U41C A56G A64G U69C A75G	0.03
G8U A28G U41C U69C	0.11
G8U A28G U43A U76C U80C	0.05
G8U A28G U43C	0.11
G8U A28U A64U U74A	0.12
G8U A28U C37U	0.06
G8U A28U C62U	0.15
G8U A35G U49C	0.15
G8U A35U U66C U74C U80A	0.1
G8U A35U U67G	0.29
G8U A45G A64G	0.2
G8U A45G U76A	0.18
G8U A45U G53U U54G	0.04
G8U A45U U49A	0.12
G8U A47U U67C C71U U78C	0.05

Variant	self-cleavage
G8U A56G A77U U80C	0.5
G8U C11U C44A U60A U80C	0.12
G8U C12A A13C C44A	0.06
G8U C12U C32U A45G A47G A65C	0.1
G8U C14U A57G U67C	0.09
G8U C17G A20G	0.07
G8U C23G U41C G46U A75U	0.05
G8U C23U G33A C38A A47G U51C	0.07
G8U C23U U26C C39U U48C A57U A65G	0.02
G8U C32G A45U	0.11
G8U C32U U69A	0.07
G8U C34A A45U U67A	0.04
G8U C34U A64G U78C	0.09
G8U C37U A65C	0.05
G8U C37U A65C U66C	0.1
G8U C38U U43C U72A	0.05
G8U C40U U49A A65U U80C	0.03
G8U C44U A47G C71A U72C	0.04
G8U G9A A18U	0.3
G8U G9A C23U	0.29
G8U G9U A18U A56G U80C	0.07
G8U G10C A18G A64U U72C U80A	0.06
G8U G10C U25C U58A	0.04
G8U G10C U49C A56U A65U U72C C81A	0.05

Variant	self-cleavage
G8U G16C U69A	0.05
G8U G19A G36A U41A U80C	0.11
G8U G19U G53C A57G	0.1
G8U G30A U49C	0.15
G8U G30C U66C	0.09
G8U G33A A35C C50U A57G U67C	0.05
G8U G33A U43G A45G U69A A75G	0.08
G8U G33C A57G	0.11
G8U G33C G52A G53U U60G U66C	0.09
G8U G36C U41A U58C U72A	0.12
G8U G36U U43C U67A	0.13
G8U G52A U60A	0.21
G8U G52A U76A	0.38
G8U G55A C71A	0.1
G8U U25C A35G C39U A77G U78C	0.04
G8U U25C C34U	0.11
G8U U25C C38A U72A A77G	0.03
G8U U25C U26C	0.07
G8U U25C U31A U49C	0.34
G8U U25C U69G	0.03
G8U U26A U51C A56C A64U	0.05
G8U U26C A28G A35G G73A U78C	0.04
G8U U26C A56G G73C	0.12
G8U U26C C27A A28G U72A U78C	0.05

Variant	self-cleavage
G8U U31C G36U U41A A45G	0.04
G8U U31C U60A	0.09
G8U U31C U69A	0.07
G8U U31G U43A	0.13
G8U U41A U43G A45U	0.05
G8U U41A U78A	0.15
G8U U41C A65G U69A	0.07
G8U U41C U43C	0.07
G8U U41C U51C	0.16
G8U U41C U51C A65G U67C	0.05
G8U U43A U51A U54G A64U U80A	0.03
G8U U43A U80C	0.23
G8U U43C A45G	0.13
G8U U43C U54C U69C U78A	0.04
G8U U43G A45U A56G U66C U76A	0.03
G8U U48A U54C	0.11
G8U U48C U60A	0.13
G8U U49A A56U	0.18
G8U U49A G63A U74C	0.06
G8U U49A U80C	0.17
G8U U49C U58C	0.08
G8U U49G U74G	0.18
G8U U51A U72A	0.07
G8U U51A U74A	0.13

Variant	self-cleavage
G8U U58C U80G	0.37
G8U U66G U74C A75U U80C	0.11
G9A A13C A21G U41A A56U U69A	0.07
G9A A13G A18U C34U	0.06
G9A A13G A20U A21G A28G U31C	0.3
G9A A13G C14U A20G U41C	0.41
G9A A13G C39A A57C	0.07
G9A A13G C44A	0.17
G9A A13G G16A U51G U72C	0.06
G9A A13G G19C A28U A47G U74G	0.36
G9A A13G U26G U60G A65G	0.21
G9A A13G U60C U66C	0.05
G9A A13G U76A A77U	0.2
G9A A13U A18G U51C	0.07
G9A A13U C38A U41G U66C	0.19
G9A A13U C38U U41A U60A U72C	0.04
G9A A13U G16U	0.28
G9A A13U U25C U31G A47G A56G U78C	0.03
G9A A13U U26C C38G	0.05
G9A A15C A28U C32U U49C U69G	0.05
G9A A15G A18G A28C G42A U66A	0.05
G9A A15G A28G A47G U67A	0.06
G9A A15G C27A C40U U41G U54A	0.07
